In the supplement of paper PMC4996465:

How the values were obtained:
KB3-1 [1] = experiment: viability (% of DMSO control); higher = more viable cells
Method: (§1)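 Eleven-dose screen of the NCATS MIPE 3 library on cells without co-treatment; CellTiter-Glo after 48 h, as % of DMSO wells.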

Nalm-6 [2] = experiment: as above
Method: as §1

KB3-1 [3] = experiment: log AC50 of viability decrease (48 h) (log10 M); higher = less potent
Method: (§2)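 Eleven-dose screen of the NCATS MIPE 3 library on cells without co-treatment; CellTiter-Glo after 48 h. AC50 from the curve fit; only inhibitory curves of the better fit classes are listed.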

Nalm-6 [4] = experiment: as above
Method: as §2

Row | Structure (SMILES) | viability (KB3-1 [1]; 0.00078 µM) [%] | viability (KB3-1 [1]; 0.00234 µM) [%] | viability (KB3-1 [1]; 0.00702 µM) [%] | viability (KB3-1 [1]; 0.0211 µM) [%] | viability (KB3-1 [1]; 0.0632 µM) [%] | viability (KB3-1 [1]; 0.19 µM) [%] | viability (KB3-1 [1]; 0.569 µM) [%] | viability (KB3-1 [1]; 1.71 µM) [%] | viability (KB3-1 [1]; 5.12 µM) [%] | viability (KB3-1 [1]; 15.4 µM) [%] | viability (KB3-1 [1]; 46.1 µM) [%] | viability (Nalm-6 [2]; run: 1, 0.00078 µM) [%] | viability (Nalm-6 [2]; run: 1, 0.00234 µM) [%] | viability (Nalm-6 [2]; run: 1, 0.00702 µM) [%] | viability (Nalm-6 [2]; run: 1, 0.0211 µM) [%] | viability (Nalm-6 [2]; run: 1, 0.0632 µM) [%] | viability (Nalm-6 [2]; run: 1, 0.19 µM) [%] | viability (Nalm-6 [2]; run: 1, 0.569 µM) [%] | viability (Nalm-6 [2]; run: 1, 1.71 µM) [%] | viability (Nalm-6 [2]; run: 1, 5.12 µM) [%] | viability (Nalm-6 [2]; run: 1, 15.4 µM) [%] | viability (Nalm-6 [2]; run: 1, 46.1 µM) [%] | viability (Nalm-6 [2]; run: 2, 0.00078 µM) [%] | viability (Nalm-6 [2]; run: 2, 0.00234 µM) [%] | viability (Nalm-6 [2]; run: 2, 0.00702 µM) [%] | viability (Nalm-6 [2]; run: 2, 0.0211 µM) [%] | viability (Nalm-6 [2]; run: 2, 0.0632 µM) [%] | viability (Nalm-6 [2]; run: 2, 0.19 µM) [%] | viability (Nalm-6 [2]; run: 2, 0.569 µM) [%] | viability (Nalm-6 [2]; run: 2, 1.71 µM) [%] | viability (Nalm-6 [2]; run: 2, 5.12 µM) [%] | viability (Nalm-6 [2]; run: 2, 15.4 µM) [%] | viability (Nalm-6 [2]; run: 2, 46.1 µM) [%] | log AC50 of viability decrease (KB3-1 [3]) | log AC50 of viability decrease (Nalm-6 [4]; run: 1) | log AC50 of viability decrease (Nalm-6 [4]; run: 2)
1 | O=[N+]([O-])c1cnc(Sc2nnc(O)n2-c2ccc3c(c2)OCCO3)s1 [BI-78D3] | 102 | 108 | 101 | 103 | 97.3 | 96.4 | 101 | 101 | 95.9 | 84.5 | 44.7 | 108 | 105 | 114 | 108 | 90.6 | 69.8 | 4.65 | 3.05 | 1.35 | 0.67 | -0.585 | 105 | 104 | 104 | 105 | 91.7 | 82.3 | 5.84 | 1.7 | 1.11 | 1.25 | -0.0168 | -4.68 | -6.63 | -6.58
2 | Nc1cc(C(F)(F)F)c(-c2cc(N3CCOCC3)nc(N3CCOCC3)n2)cn1 [BKM-120] | 104 | 107 | 105 | 109 | 101 | 91.3 | 74.6 | 50.7 | 20.1 | 18.5 | 20.3 | 127 | 121 | 114 | 123 | 106 | 92.6 | 76.6 | 51.6 | 28.9 | 24.9 | 11.7 | 99.3 | 104 | 105 | 106 | 97.9 | 95.8 | 76.6 | 36.7 | 18.7 | 13.9 | 3.21 | -6.03 | -6.08 | -5.98
3 | CC(C)C(=O)Nc1ncc(-c2cc(C(F)F)nn2-c2c(Cl)cccc2Cl)s1 [BMS-5] | 96.8 | 95.3 | 91 | 99.7 | 108 | 94.3 | 95.7 | 97.5 | 79.9 | 73.8 | 19.7 | 85.8 | 91 | 86.7 | 117 | 120 | 100 | 104 | 103 | 98.9 | 66.9 | 7.36 | 79.3 | 92.4 | 97.8 | 99.3 | 102 | 89.4 | 101 | 105 | 97.8 | 29 | 4.09 | -4.73 | -4.73 | -4.93
4 | C=CCO/N=C(/C[C@H]1O[C@@H]2O[C@]3(C)CC[C@H]4[C@H](C)CC[C@@H]([C@H]1C)[C@@]24OO3)[C@H]1O[C@@H]2O[C@]3(C)CC[C@H]4[C@H](C)CC[C@@H]([C@H]1C)[C@@]24OO3 [BTM-2C-dimer allyl oxime] | 97.5 | 96.4 | 100 | 97.7 | 101 | 64.3 | 35.7 | 31.6 | 30 | 23.4 | 9.18 | 90.3 | 100 | 94.2 | 56.3 | 28.8 | 14.6 | 18.5 | 20.9 | 18.3 | 14.7 | 10.9 | 95.8 | 92 | 97.2 | 37.4 | 10.7 | 8.51 | 8.58 | 8.23 | 9.68 | 8.79 | 7.1 | -6.63 | -7.63 | -7.78
5 | C[C@H]1[C@@H](C(=O)C[C@H]2O[C@@H]3O[C@]4(C)CC[C@H]5[C@H](C)CC[C@@H]([C@H]2C)[C@@]35OO4)O[C@@H]2O[C@]3(C)CC[C@H]4[C@H](C)CC[C@@H]1[C@@]24OO3 [BTM-2C-dimer ketone] | 96.3 | 96.2 | 98.5 | 92.3 | 98.5 | 67.6 | 51.4 | 45.3 | 44.7 | 39.7 | 39.3 | 84.2 | 91.4 | 89.9 | 53.5 | 36.2 | 16.3 | 18.3 | 17.8 | 15.8 | 22.2 | 12.9 | 93.2 | 99.2 | 95 | 64.2 | 21.8 | 10.8 | 10.1 | 10.2 | 12 | 11.6 | 8.38 | -6.68 | -7.58 | -7.58
6 | O=C(OC)[C@]12CC[C@@]3(C)[C@]4(C)CC[C@H]5[C@@](C)(C)C(=O)C(=C[C@]5(C)C4=CC(=O)[C@@H]3[C@@H]2C[C@](C)(C)CC1)C#N [Bardoxolone methyl] | 99.9 | 101 | 105 | 103 | 103 | 95.6 | 68.6 | 25.7 | 5.55 | 1.31 | -0.702 | 115 | 106 | 111 | 114 | 68.8 | 103 | 43.7 | 4.61 | 1.93 | 0.135 | -0.46 | 113 | 114 | 114 | 112 | 111 | 103 | 54.5 | 4.6 | 2.58 | 0.897 | 0.0452 | -6.08 | -6.33 | -6.28
7 | O=C(/C=C/c1cccc(S(=O)(=O)Nc2ccccc2)c1)NO [Belinostat] | 98 | 97.2 | 102 | 90.3 | 91 | 76.8 | 58.8 | 50 | 30.8 | 24.8 | 16.9 | 106 | 113 | 100 | 77.6 | 22.6 | 1.51 | -0.676 | -1.31 | -1.47 | -1.41 | -1.53 | 96.9 | 97.5 | 114 | 112 | 98.3 | 66.9 | 24.2 | 6.32 | 4.85 | 3.72 | 2.46 | -6.08 | -7.48 | -6.58
8 | CC(C)C[C@H](NC(=O)[C@H](Cc1ccccc1)NC(=O)c1cnccn1)B(O)O [Bortezomib] | 98.9 | 101 | 83.8 | 31.3 | 8.09 | 5.44 | 3.31 | 2 | 1.64 | 1.88 | 2.73 | 0.264 | -0.0617 | 0.93 | 1.22 | 1.48 | 1.69 | 2.2 | 1.85 | 1.61 | 1.75 | 1.66 | 119 | 103 | 12.5 | 5.5 | 5 | 4.11 | 3.05 | 2.76 | 2.22 | 1.92 | 1.8 | -7.83 |  | -8.43
9 | CO.COc1cc(Nc2c(C#N)cnc3cc(OCCCN4CCN(C)CC4)c(OC)cc23)c(Cl)cc1Cl [Bosutinib] | 104 | 105 | 105 | 93.6 | 90.2 | 85.2 | 77.7 | 83.9 | 74.3 | 54 | 4.4 | 120 | 116 | 124 | 107 | 108 | 112 | 79.1 | 80.8 | 55.3 | 41.4 | 6.08 | 105 | 108 | 109 | 115 | 112 | 108 | 91.3 | 77.4 | 73.6 | 42.6 | 4.43 | -4.63 | -5.18 | -4.88
10 | Cc1cc2c(F)c(Oc3ncnn4cc(OC[C@@H](C)O)c(C)c34)ccc2[nH]1 [Brivanib] | 101 | 100 | 102 | 103 | 100 | 101 | 103 | 94.2 | 83.1 | 76.4 | 57.4 | 102 | 107 | 108 | 107 | 116 | 108 | 99.9 | 94 | 56 | 55 | 16.1 | 106 | 109 | 106 | 109 | 105 | 106 | 97 | 92.6 | 73.6 | 61.1 | 26.2 | -4.83 | -4.93 | -4.83
11 | Cn1c(Nc2ccc(C(F)(F)F)cc2)nc2cc(Oc3ccnc(-c4nc(C(F)(F)F)c[nH]4)c3)ccc21 [CHIR-265] | 102 | 95.4 | 98.7 | 94.2 | 92.5 | 86.3 | 81.2 | 85.9 | 70.9 | 69.7 | 30.2 | 106 | 99.5 | 108 | 96.7 | 92.8 | 85.2 | 71.9 | 80.6 | 59.2 | 53 | 2.62 | 101 | 96.4 | 103 | 101 | 94 | 76.7 | 71.3 | 75.2 | 51.9 | 41.4 | 1.79 | -4.63 | -4.73 | -4.93
12 | COc1c(C)cnc(Cn2cnc3c(Cl)nc(N)nc32)c1C [CNF-2024] | 102 | 103 | 93.1 | 67.2 | 56.9 | 64.8 | 66.7 | 64.1 | 64.2 | 64.8 | 58.3 | 94.5 | 97.4 | 77.8 | 51.5 | 37.5 | 22.6 | 20.6 | 19.5 | 24.9 | 24.6 | 19.2 | 93.3 | 95.1 | 71.8 | 61.8 | 38.7 | 28 | 22.7 | 26.4 | 18.8 | 22.4 | 17.4 | -7.98 | -7.78 | -7.73
13 | C#Cc1cccc(Nc2ncnc3cc(OC)c(OCCCCCCC(=O)NO)cc23)c1 [CUDC-101] | 102 | 104 | 99.1 | 102 | 95.3 | 80.5 | 52.9 | 26.6 | 11.5 | 9.23 | 6.76 | 112 | 107 | 112 | 110 | 90.6 | 25.3 | 4.53 | 2.65 | 2.02 | -0.268 | -0.504 | 105 | 108 | 106 | 106 | 95 | 29.5 | 3.46 | 1.78 | 1.19 | -0.0885 | 0.151 | -6.28 | -6.93 | -6.88

Viability of KB3-1 and Nalm-6 cells after 48 h of drug alone (CellTiter-Glo), 11 doses over about 4.5 log units. % of DMSO wells, lower = more cell loss; AC50 from the fitted curve, lower = more potent. No active / inactive call. Nalm-6 was screened in two runs. AC50 is listed only for well-fitted inhibitory curves. KB3-1 is a HeLa-derived carcinoma line, Nalm-6 a B-cell precursor leukaemia line.
